This is one part of the list.
Columns and labels:
Assay in all cases: glycan array binding signal (z-score within array); higher = stronger binding
Settings in all cases: glycan notation: IUPAC condensed, linker removed
[1] = target: Neu5Ac(a2-3)Gal(b1-4)GlcNAc(b1-6)GalNAc
Summary of the method: (§1)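 From the Consortium for Functional Glycomics database, 3228 arrays were curated, keeping only those whose protein sequence was available. Binding is given as a within-array Z-score averaged across arrays sharing a protein sequence and across linkers. Negative Z-scores can be read as non-binding.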

[2] = target: Neu5Ac(a2-3)Gal(b1-4)GlcNAc(b1-6)[Gal(b1-3)]GalNAc
Summary of the method: as §1

[3] = target: Neu5Ac(a2-3)Gal(b1-4)GlcNAc(b1-6)[Neu5Ac(a2-3)Gal(b1-3)]GalNAc
Summary of the method: as §1

[4] = target: Neu5Ac(a2-3)Gal(b1-4)GlcNAc6S
Summary of the method: as §1

[5] = target: Neu5Ac(a2-3)Gal(b1-4)[Fuc(a1-3)]GlcNAc
Summary of the method: as §1

[6] = target: Neu5Ac(a2-3)Gal(b1-4)[Fuc(a1-3)]GlcNAc(b1-2)Man
Summary of the method: as §1

[7] = target: Neu5Ac(a2-3)Gal(b1-4)[Fuc(a1-3)]GlcNAc(b1-3)Gal
Summary of the method: as §1

[8] = target: Neu5Ac(a2-3)Gal(b1-4)[Fuc(a1-3)]GlcNAc(b1-3)Gal(b1-4)GlcNAc
Summary of the method: as §1

[9] = target: Neu5Ac(a2-3)Gal(b1-4)[Fuc(a1-3)]GlcNAc(b1-3)Gal(b1-4)[Fuc(a1-3)]GlcNAc(b1-3)Gal(b1-4)[Fuc(a1-3)]GlcNAc
Summary of the method: as §1

[10] = target: Neu5Ac(a2-3)Gal(b1-4)[Fuc(a1-3)]GlcNAc(b1-3)GalNAc
Summary of the method: as §1

[11] = target: Neu5Ac(a2-3)Gal(b1-4)[Fuc(a1-3)]GlcNAc(b1-6)[Gal(b1-3)]GalNAc
Summary of the method: as §1

[12] = target: Neu5Ac(a2-3)Gal(b1-4)[Fuc(a1-3)]GlcNAc(b1-6)[Neu5Ac(a2-3)Gal(b1-3)]GalNAc
Summary of the method: as §1

[13] = target: Neu5Ac(a2-3)Gal(b1-4)[Fuc(a1-3)]GlcNAc6S
Summary of the method: as §1

[14] = target: Neu5Ac(a2-3)Gal6S(b1-4)GlcNAc
Summary of the method: as §1

[15] = target: Neu5Ac(a2-3)Gal6S(b1-4)[Fuc(a1-3)]GlcNAc
Summary of the method: as §1

[16] = target: Neu5Ac(a2-3)GalNAc
Summary of the method: as §1

[17] = target: Neu5Ac(a2-3)GalNAc(b1-4)GlcNAc
Summary of the method: as §1

[18] = target: Neu5Ac(a2-3)[GalNAc(b1-4)]Gal(b1-4)Glc
Summary of the method: as §1

[19] = target: Neu5Ac(a2-3)[GalNAc(b1-4)]Gal(b1-4)GlcNAc
Summary of the method: as §1

[20] = target: Neu5Ac(a2-3)[GalNAc(b1-4)]Gal(b1-4)GlcNAc(b1-3)GalNAc
Summary of the method: as §1

[21] = target: Neu5Ac(a2-3)[Neu5Ac(a2-6)]GalNAc
Summary of the method: as §1

[22] = target: Neu5Ac(a2-6)Gal
Summary of the method: as §1

[23] = target: Neu5Ac(a2-6)Gal(b1-3)GlcNAc(b1-3)[Gal(b1-4)GlcNAc(b1-6)]Gal(b1-4)Glc
Summary of the method: as §1

[24] = target: Neu5Ac(a2-6)Gal(b1-4)Glc
Summary of the method: as §1

[25] = target: Neu5Ac(a2-6)Gal(b1-4)GlcNAc
Summary of the method: as §1

[26] = target: Neu5Ac(a2-6)Gal(b1-4)GlcNAc(b1-2)Man
Summary of the method: as §1

[27] = target: Neu5Ac(a2-6)Gal(b1-4)GlcNAc(b1-2)Man(a1-3)Man(b1-4)GlcNAc(b1-4)GlcNAc
Summary of the method: as §1

[28] = target: Neu5Ac(a2-6)Gal(b1-4)GlcNAc(b1-2)Man(a1-3)[Gal(b1-4)GlcNAc(b1-2)Man(a1-6)]Man(b1-4)GlcNAc(b1-4)GlcNAc
Summary of the method: as §1

[29] = target: Neu5Ac(a2-6)Gal(b1-4)GlcNAc(b1-2)Man(a1-3)[GlcNAc(b1-2)Man(a1-6)]Man(b1-4)GlcNAc(b1-4)GlcNAc
Summary of the method: as §1

[30] = target: Neu5Ac(a2-6)Gal(b1-4)GlcNAc(b1-2)Man(a1-3)[GlcNAc(b1-4)][Neu5Ac(a2-6)Gal(b1-4)GlcNAc(b1-2)Man(a1-6)]Man(b1-4)GlcNAc(b1-4)GlcNAc
Summary of the method: as §1

[31] = target: Neu5Ac(a2-6)Gal(b1-4)GlcNAc(b1-2)Man(a1-3)[Man(a1-6)]Man(b1-4)GlcNAc(b1-4)GlcNAc
Summary of the method: as §1

[32] = target: Neu5Ac(a2-6)Gal(b1-4)GlcNAc(b1-2)Man(a1-3)[Neu5Ac(a2-3)Gal(b1-4)GlcNAc(b1-2)Man(a1-6)]Man(b1-4)GlcNAc(b1-4)GlcNAc
Summary of the method: as §1

[33] = target: Neu5Ac(a2-6)Gal(b1-4)GlcNAc(b1-2)Man(a1-3)[Neu5Ac(a2-6)Gal(b1-4)GlcNAc(b1-2)Man(a1-6)]Man(b1-4)GlcNAc(b1-4)GlcNAc
Summary of the method: as §1

[34] = target: Neu5Ac(a2-6)Gal(b1-4)GlcNAc(b1-2)Man(a1-3)[Neu5Ac(a2-6)Gal(b1-4)GlcNAc(b1-2)Man(a1-6)]Man(b1-4)GlcNAc(b1-4)[Fuc(a1-6)]GlcNAc
Summary of the method: as §1

[35] = target: Neu5Ac(a2-6)Gal(b1-4)GlcNAc(b1-2)Man(a1-6)Man(b1-4)GlcNAc(b1-4)GlcNAc
Summary of the method: as §1

[36] = target: Neu5Ac(a2-6)Gal(b1-4)GlcNAc(b1-2)Man(a1-6)[Gal(b1-4)GlcNAc(b1-2)Man(a1-3)]Man(b1-4)GlcNAc(b1-4)GlcNAc
Summary of the method: as §1

[37] = target: Neu5Ac(a2-6)Gal(b1-4)GlcNAc(b1-2)Man(a1-6)[GlcNAc(b1-2)Man(a1-3)]Man(b1-4)GlcNAc(b1-4)GlcNAc
Summary of the method: as §1

[38] = target: Neu5Ac(a2-6)Gal(b1-4)GlcNAc(b1-2)Man(a1-6)[Man(a1-3)]Man(b1-4)GlcNAc(b1-4)GlcNAc
Summary of the method: as §1

[39] = target: Neu5Ac(a2-6)Gal(b1-4)GlcNAc(b1-2)[Neu5Ac(a2-6)Gal(b1-4)GlcNAc(b1-4)]Man(a1-3)[GlcNAc(b1-4)][Neu5Ac(a2-6)Gal(b1-4)GlcNAc(b1-2)[Neu5Ac(a2-6)Gal(b1-4)GlcNAc(b1-6)]Man(a1-6)]Man(b1-4)GlcNAc(b1-4)GlcNAc
Summary of the method: as §1

[40] = target: Neu5Ac(a2-6)Gal(b1-4)GlcNAc(b1-2)[Neu5Ac(a2-6)Gal(b1-4)GlcNAc(b1-4)]Man(a1-3)[GlcNAc(b1-4)][Neu5Ac(a2-6)Gal(b1-4)GlcNAc(b1-4)Man(a1-6)]Man(b1-4)GlcNAc(b1-4)GlcNAc
Summary of the method: as §1

[41] = target: Neu5Ac(a2-6)Gal(b1-4)GlcNAc(b1-2)[Neu5Ac(a2-6)Gal(b1-4)GlcNAc(b1-6)]Man(a1-6)[Neu5Ac(a2-6)Gal(b1-4)GlcNAc(b1-2)Man(a1-3)][GlcNAc(b1-4)]Man(b1-4)GlcNAc(b1-4)GlcNAc
Summary of the method: as §1

[42] = target: Neu5Ac(a2-6)Gal(b1-4)GlcNAc(b1-3)Gal(b1-3)GlcNAc
Summary of the method: as §1

[43] = target: Neu5Ac(a2-6)Gal(b1-4)GlcNAc(b1-3)Gal(b1-4)GlcNAc
Summary of the method: as §1

[44] = target: Neu5Ac(a2-6)Gal(b1-4)GlcNAc(b1-3)Gal(b1-4)GlcNAc(b1-2)Man(a1-3)[Neu5Ac(a2-6)Gal(b1-4)GlcNAc(b1-3)Gal(b1-4)GlcNAc(b1-2)Man(a1-6)]GalNAc
Summary of the method: as §1

[45] = target: Neu5Ac(a2-6)Gal(b1-4)GlcNAc(b1-3)Gal(b1-4)GlcNAc(b1-3)Gal(b1-4)GlcNAc
Summary of the method: as §1

B1: WGA (Triticum vulgare) (protein)
chain: QRCGEQGSNMECPNNLCCSQYGYCGMGGDYCGKGCQNGACWTSKRCGSQAGGATCPNNHCCSQYGHCGFGAEYCGAGCQGGPCRADIKCGSQSGGKLCPNNLCCSQWGFCGLGSEFCGGGCQSGACSTDKPCGKDAGGRVCTNNYCCSKWGSCGIGPGYCGAGCQSGGCDAVFAGAITANSTLLAE
glycan array binding signal (z-score) [1]: -0.274
glycan array binding signal (z-score) [2]: -0.357
glycan array binding signal (z-score) [3]: -0.151
glycan array binding signal (z-score) [4]: 0.05
glycan array binding signal (z-score) [5]: -0.282
glycan array binding signal (z-score) [6]: -0.349
glycan array binding signal (z-score) [7]: -0.355
glycan array binding signal (z-score) [8]: 0.06
glycan array binding signal (z-score) [9]: -0.293
glycan array binding signal (z-score) [10]: -0.268
glycan array binding signal (z-score) [11]: -0.292
glycan array binding signal (z-score) [12]: -0.275
glycan array binding signal (z-score) [13]: -0.378
glycan array binding signal (z-score) [14]: -0.339
glycan array binding signal (z-score) [15]: -0.372
glycan array binding signal (z-score) [16]: -0.398
glycan array binding signal (z-score) [17]: -0.215
glycan array binding signal (z-score) [18]: -0.373
glycan array binding signal (z-score) [19]: -0.323
glycan array binding signal (z-score) [20]: -0.103
glycan array binding signal (z-score) [21]: -0.395
glycan array binding signal (z-score) [22]: -0.352
glycan array binding signal (z-score) [23]: -0.286
glycan array binding signal (z-score) [24]: -0.349
glycan array binding signal (z-score) [25]: -0.369
glycan array binding signal (z-score) [26]: -0.356
glycan array binding signal (z-score) [27]: 0.384
glycan array binding signal (z-score) [28]: -0.132
glycan array binding signal (z-score) [29]: -0.3
glycan array binding signal (z-score) [30]: -0.059
glycan array binding signal (z-score) [31]: -0.26
glycan array binding signal (z-score) [32]: 0.02
glycan array binding signal (z-score) [33]: 0.238
glycan array binding signal (z-score) [34]: -0.329
glycan array binding signal (z-score) [35]: -0.344
glycan array binding signal (z-score) [36]: -0.227
glycan array binding signal (z-score) [37]: -0.173
glycan array binding signal (z-score) [38]: -0.305
glycan array binding signal (z-score) [39]: -0.366
glycan array binding signal (z-score) [40]: -0.388
glycan array binding signal (z-score) [41]: -0.288
glycan array binding signal (z-score) [42]: -0.375
glycan array binding signal (z-score) [43]: -0.02
glycan array binding signal (z-score) [44]: -0.017
glycan array binding signal (z-score) [45]: -0.134
